Some of the results follow. Single values are uncertain, as repeats are few or missing.
Legend:
Experiment in all cases: cell viability relative to vehicle (% of vehicle); basal-like triple-negative breast cancer lines; higher = less cytotoxic
Details in all cases: 10 µM; 72 h
HCC-1143 = system: HCC-1143
HCC-1187 = system: HCC-1187
MDA-468 = system: MDA-468
SUM-149 = system: SUM-149
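Note: stably firefly luciferase-GFP labeled cells in 96-well plates, viability read as luciferase photon flux after d-luciferin addition, treated wells normalized to vehicle wells, single-dose high-throughput screen.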

| Structure (SMILES) | cell viability (HCC-1143) | cell viability (HCC-1187) | cell viability (MDA-468) | cell viability (SUM-149) |
| --- | --- | --- | --- | --- |
| COCCCOc1ccnc(C[S+]([O-])c2nc3ccccc3[nH]2)c1C (stereo unspecified) [Rabeprazole] | 139 | 97.9 | 146 | 155 |
| CC(=O)N=c1sc(S(N)(=O)=O)nn1C [Methazolamide] | 127 | 93.7 | 97.1 | 102 |
| CCCC(NC(=O)C1C2CCCC2CN1C(=O)C(NC(=O)C(NC(=O)c1cnccn1)C1CCCCC1)C(C)(C)C)C(=O)C(=O)NC1CC1 (stereo unspecified) [Telaprevir (VX-950)] | 88.6 | 72.7 | 67.6 | 132 |
| O=S(=O)(O)NC1CCCCC1 [Cyclamic acid] | 68.3 | 71.9 | 94.8 | 120 |
| Cc1ccc(NC(=O)C2(c3ccc4c(c3)OC(F)(F)O4)CC2)nc1-c1cccc(C(=O)O)c1 | 79.4 | 101 | 105 | 108 |
| CN1CCN(C2=Nc3ccccc3Oc3ccc(Cl)cc32)CC1.O=C(O)CCC(=O)O [Loxapine Succinate] | 74.4 | 84 | 105 | 101 |
| C=C1c2cccc(O)c2C(O)=C2C(=O)C3(O)C(O)=C(C(N)=O)C(=O)C(N(C)C)C3C(O)C12.Cl (stereo unspecified) [Methacycline HCl] | 121 | 100 | 104 | 105 |
| C=CC(=O)Nc1cccc(Nc2nc(Nc3ccc(N4CCN(C(C)=O)CC4)cc3OC)ncc2C(F)(F)F)c1 | 22.7 | 16.4 | 18.9 | 29.3 |
| Br.Cc1ccc(Sc2ccccc2N2CCNCC2)c(C)c1 | 103 | 19.6 | 35.7 | 26.9 |

Reference: the supplement of paper PMC8512760
